# Laboratory results: article PMC4336329 (PLoS ONE, 2015)
# Among all 310,000 compounds or so, about 14,000 (4.5%) showed an effect of 50% or more. Effects have a minus sign here. The list shows a part of the results.
# Target: human ether-à-go-go-related gene (hERG) potassium channel (human, UniProt Q12809)
# Experiment: primary screen, population patch clamp on CHO cells stably expressing hERG
# 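Also: peak tail current of the secondary pulse compared with the same well before compound.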
# Sequence of human ether-à-go-go-related gene (hERG) potassium channel (Q12809 whole entry, looked up): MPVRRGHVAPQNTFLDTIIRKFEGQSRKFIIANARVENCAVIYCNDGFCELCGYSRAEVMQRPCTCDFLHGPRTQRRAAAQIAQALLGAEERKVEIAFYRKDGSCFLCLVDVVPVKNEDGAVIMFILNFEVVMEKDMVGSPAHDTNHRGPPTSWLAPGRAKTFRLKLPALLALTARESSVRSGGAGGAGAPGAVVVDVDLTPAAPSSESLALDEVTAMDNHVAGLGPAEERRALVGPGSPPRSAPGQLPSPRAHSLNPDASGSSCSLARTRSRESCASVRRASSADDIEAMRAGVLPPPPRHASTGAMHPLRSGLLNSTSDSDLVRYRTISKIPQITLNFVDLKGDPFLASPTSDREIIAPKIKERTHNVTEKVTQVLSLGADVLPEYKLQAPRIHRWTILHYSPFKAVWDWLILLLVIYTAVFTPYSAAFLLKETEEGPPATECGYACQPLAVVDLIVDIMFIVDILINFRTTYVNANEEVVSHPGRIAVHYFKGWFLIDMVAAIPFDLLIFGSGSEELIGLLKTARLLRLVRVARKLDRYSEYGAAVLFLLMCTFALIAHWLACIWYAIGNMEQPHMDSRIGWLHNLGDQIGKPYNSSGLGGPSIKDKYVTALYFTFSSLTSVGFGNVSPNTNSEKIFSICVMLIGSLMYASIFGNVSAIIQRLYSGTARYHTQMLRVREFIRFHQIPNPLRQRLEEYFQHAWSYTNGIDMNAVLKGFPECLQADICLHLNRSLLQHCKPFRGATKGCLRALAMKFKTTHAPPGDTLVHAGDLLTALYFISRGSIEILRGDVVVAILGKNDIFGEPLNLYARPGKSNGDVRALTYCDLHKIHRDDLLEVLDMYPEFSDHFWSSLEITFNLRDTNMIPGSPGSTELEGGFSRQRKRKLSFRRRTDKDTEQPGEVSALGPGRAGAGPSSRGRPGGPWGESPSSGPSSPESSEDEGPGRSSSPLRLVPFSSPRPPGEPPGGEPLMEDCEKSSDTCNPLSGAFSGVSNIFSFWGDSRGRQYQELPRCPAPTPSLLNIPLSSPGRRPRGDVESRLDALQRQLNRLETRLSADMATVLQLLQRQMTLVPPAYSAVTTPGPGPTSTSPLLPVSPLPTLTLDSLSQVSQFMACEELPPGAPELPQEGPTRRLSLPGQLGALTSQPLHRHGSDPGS
row,Compound,"hERG current change (%, negative = inhibition) at 10uM"
1,Cc1cc(NC(=O)CSc2ncn[nH]2)no1,-3.9%
2,CCn1c(=O)cc(SCC(=O)NCc2ccc(C)cc2)c2ccccc21,4.39%
3,CC1(C)Cc2cccc(OCC(=O)OCC(=O)NCc3ccccc3)c2O1,-0.697%
4,COc1ccc(-c2nnc(N(C)C(=O)c3ccno3)s2)cc1,9.59%
5,COc1ccc(CCN2C(=O)N(c3ccc(OC)cc3)C(=O)C2CC(=O)Nc2ccc(OC)cc2)cc1 (stereo not shown),7.46%
6,CC(C)C(NC(=O)c1ccccc1)C(=O)OCn1nnc2ccccc2c1=O (stereo not shown),-8.61%
7,COCCNC(=O)c1c(N)n(CCC2=CCCCC2)c2nc3ccccc3nc12,8.15%
8,O=C1c2cccc3c2N(CCC3)C(=O)C1(F)c1ccccc1 (stereo not shown),-4.52%
9,CC(=O)Nc1ccc(/C=C/c2noc(-c3ccccc3O)n2)cc1,24.9%
10,CC(C(=O)N1CCCc2ccccc21)N1CCN(c2ccccn2)CC1 (stereo not shown),11%
11,O=C(CSc1ccc(Cl)cc1)N1CCN(c2ncc(C(F)(F)F)cc2Cl)CC1,-26%
12,CC(C)[C@H]1C(=O)Nc2ccccc2N1C(=O)N[C@@H](Cc1ccccc1)C(=O)N[C@@H](C(=O)O)c1ccccc1,4.02%
13,COc1cc(OC)cc(C(=O)NCCOc2ccccc2)c1,-17.6%
14,COc1ccc(S(=O)(=O)N2c3ccccc3OCC2c2ccccc2)cc1 (stereo not shown),6.69%
15,O=C(Nc1ccccc1N1CCCC1)c1ccc2c(c1)OCO2,-3.23%
16,COc1cc(O)c(C(CC(=O)N2CCCC2)c2cc(OC)c(OC)c(OC)c2)c(OC)c1 (stereo not shown),18%
17,CC(C)CCNC(=O)C1CCC(CNS(=O)(=O)c2cccc3nsnc23)CC1 (stereo not shown),-0.113%
18,CC(C)(C)n1cnnc1Sc1ncccc1[N+](=O)[O-],13.3%
19,O=C(COc1ccc(Cl)cc1)NNC(=O)c1cccnc1,3.87%
20,O=C(O)c1ccc2cccc(Cl)c2c1O,5.75%
21,C[C@@H]1C=C(C(=O)NCc2nc3ccccc3[nH]2)O[C@H](OCCCCO)C1,0.943%
22,Nc1nonc1-n1nnc(C(=O)N/N=C/c2ccccc2F)c1CN1CCc2ccccc21,7.9%
23,O=C(Nc1ccccc1F)C1C2C=CC3(O2)C1C(=O)N(c1cccnc1)C3C(=O)NC1CCCCC1 (stereo not shown),-9.01%
24,Cc1nnc(NCc2n[nH]c(=O)c3ccccc23)c2ccccc12,1.84%
25,CCN(CC(O)CON=C1c2ccccc2-c2ccccc21)S(=O)(=O)c1ccc(Cl)cc1 (stereo not shown),2.32%
26,COCc1cc(/C=N\NC(=O)Cc2ccc(OC)cc2)ccc1OC,-4.03%
27,CCCn1nnnc1NCc1ccccc1Cl,6.12%
28,COC(=O)c1ccc(C(=O)OC)c(NC(=O)COC(=O)C23CC4CC(CC(O)(C4)C2)C3)c1,-19.2%

row,Compound,"hERG current change (%, negative = inhibition) at 10uM"
1,COc1ccc(C(=O)NCCCSC)cc1OC1CCN(C(C)C)CC1,-11.8%
2,CCOC(=O)C1CCCN(c2c(N3CCN(C4CCCCC4)CC3)c(=O)c2=O)C1 (stereo not shown),-55.8%
3,O=S(=O)(Nc1ccc2c(c1)OCCO2)c1ccc2oc3ccccc3c2c1,-6.85%
4,Cc1ccc(Oc2ncc(CN3CC(C)OC(C)C3)s2)cc1 (stereo not shown),-7.61%
5,O=C(O)C1CCCCC1C(=O)Nc1ccc2c(c1)OCCO2 (stereo not shown),3.83%
6,CC1=Nc2cc(C(=O)O)ccc2Sc2ccc(Br)cc21,11.6%
7,Cc1ccccc1N1CCN(S(=O)(=O)c2ccc3ccccc3c2)CC1,9.64%
8,O=C(NCc1ccccc1Cl)C1CCCN(c2nc3ccsc3c(=O)s2)C1 (stereo not shown),10.1%
9,COCCN(CCOC)C(=O)COC(=O)c1cc([N+](=O)[O-])ccc1Cl,-17.3%
10,CCN(CC)S(=O)(=O)c1cccc(NC(=O)CN2C(=O)c3ccc([N+](=O)[O-])cc3C2=O)c1,-20.5%
11,CCOC(=O)c1c(C)c(C(=O)Nc2cc(OC)ccc2OC)c(C)n1CC,-22.5%
12,N#CC(C#N)=Cc1ccc(N2CCCC2)cc1,4.17%
13,CC(C)c1ccc(C(=O)N2CCN(c3cnn(C)c(=O)c3Cl)CC2)cc1,-64.4%
14,CCOC(=O)C1CCN(CC(=O)c2c(C)[nH]c3cc(C)ccc23)CC1,-60.5%
15,N#C/C(=C\Nc1ccccc1O)c1nc2ccccc2o1,-3.66%
16,Cc1ccc2nc(NC(=O)CSCC(=O)Nc3cc(C)on3)sc2c1,9.4%
17,COc1cccc(NC(=O)Nc2cc(C(=O)NCC3CCCO3)ccc2N2CC3CC(C2)c2cccc(=O)n2C3)c1 (stereo not shown),4.39%
18,Cc1csc(=N)n1Cc1ccccc1,-1.23%
19,CCCCN1C(=O)Cc2c1nc(N)c1c(N)nc(N(CCC)CCC)c(C#N)c21,13.5%
20,COc1ccc(OC)c2sc(N(CCN(C)C)C(=O)c3ccc4ccccc4c3)nc12.Cl,-11.3%
21,Cc1cc(-c2csc(NC(=O)C3=COCCO3)n2)c(C)n1C,2.93%
22,COc1ccc(/C=C/c2cc(=O)c3cc(Cl)ccc3o2)cc1,7.69%
23,O=C(COc1ccc(F)cc1)N1CCC(c2ccccc2)C1 (stereo not shown),-27.7%
24,NC(=S)N/N=C/c1coc2ccc(F)cc2c1=O,10.3%
25,COc1ccc(-c2cc(C(=O)O)c3c(C)nn(-c4ccccn4)c3n2)cc1,-4.84%
26,C[C@@H](C(=O)Nc1cccc(S(=O)(=O)N2CCOCC2)c1)N1C(=O)C2CC=CCC2C1=O (stereo partly shown),7.32%
27,COc1ccc(OC)c(NC(=O)Nc2ccc3[nH]ccc3c2)c1,-0.435%
